First the molecules themselves.
B1: Example 1 (immunoconjugate of M048-D01-hIgG1, coupled to cysteine side chains) (antibody)
heavy: QVELLESGGGLVQPGGSLRLSCAASGFTFSSYAMSWVRQAPGKGLEWVSAISGSGTSTYYADSVKGRFTISRDNSKNTLYLQMNSLRAEDTAVYYCARVRYNWNHGDWFDPWGQGTLVTVSS[no letters for human IgG1 constant region]
light: QSVLTQPPSASGTPGQRVTISCSGSSSNIGNNYVSWYQQLPGTAPKLLIYENYNRPAGVPDRFSGSKSGTSASLAISGLRSEDEADYYCSSWDDSLNYWVFGGGTKLTVLGQPKAAPSVTLFPPSSEELQANKATLVCLISDFYPGAVTVAWKADSSPVKAGVETTTPSKQSNNKYAASSYLSLTPEQWKSHRSYSCQVTHEGSTVEKTVAPTECS
modifications: here or on the partner: auristatin linker-toxophore on sulphur atoms of cysteine residues of the partially reduced antibody, positions not stated (drug/mAb ratio 3.7 for the antibody)
B2: Example 31 (immunoconjugate of M048-D01-hIgG1-b, coupled to lysine side chains) (antibody)
heavy: B1 heavy with Q1E, E3Q
light: B1 light
modifications: here or on the partner: auristatin linker-toxophore on side chain NH of lysine residues, positions not stated (drug/mAb ratio 1.7 for the antibody)
B3: Example 34 (immunoconjugate of M048-D01-hIgG1-b, coupled to lysine side chains) (antibody)
heavy: B1 heavy with Q1E, E3Q
light: B1 light
modifications: here or on the partner: auristatin linker-toxophore on side chain NH of lysine residues, positions not stated (drug/mAb ratio 0.5 for the antibody)
B4: Example 30 (immunoconjugate of M048-D01-hIgG1-b, coupled to lysine side chains) (antibody)
heavy: B1 heavy with Q1E, E3Q
light: B1 light
modifications: here or on the partner: auristatin linker-toxophore on side chain NH of lysine residues, positions not stated (drug/mAb ratio 3.9 for the antibody)
B5: Example 5 (immunoconjugate of M048-D01-hIgG1, coupled to cysteine side chains) (antibody)
heavy: B1 heavy
light: B1 light
modifications: here or on the partner: auristatin linker-toxophore on sulphur atoms of cysteine residues of the partially reduced antibody, positions not stated (drug/mAb ratio 3.1 for the antibody)
B6: Example 10 (immunoconjugate of M048-D01-hIgG1-b, coupled to cysteine side chains) (antibody)
heavy: B1 heavy with Q1E, E3Q
light: B1 light
modifications: here or on the partner: auristatin linker-toxophore on sulphur atoms of cysteine residues of the partially reduced antibody, positions not stated (drug/mAb ratio 4.4 for the antibody)
B7: Example 14 (immunoconjugate of M048-D01-hIgG1-b, coupled to cysteine side chains) (antibody)
heavy: B1 heavy with Q1E, E3Q
light: B1 light
modifications: here or on the partner: auristatin linker-toxophore on sulphur atoms of cysteine residues of the partially reduced antibody, positions not stated (drug/mAb ratio 2.7 for the antibody)
B8: Example 35 (immunoconjugate of M048-D01-hIgG1-b, coupled to lysine side chains) (antibody)
heavy: B1 heavy with Q1E, E3Q
light: B1 light
modifications: here or on the partner: auristatin linker-toxophore on side chain NH of lysine residues, positions not stated (drug/mAb ratio 3.4 for the antibody)
B9: Example 33 (immunoconjugate of M048-D01-hIgG1-b, coupled to lysine side chains) (antibody)
heavy: B1 heavy with Q1E, E3Q
light: B1 light
modifications: here or on the partner: auristatin linker-toxophore on side chain NH of lysine residues, positions not stated (drug/mAb ratio 5.5 for the antibody)
B10: Example 15 (immunoconjugate of M048-D01-hIgG1-b, coupled to cysteine side chains) (antibody)
heavy: B1 heavy with Q1E, E3Q
light: B1 light
modifications: here or on the partner: auristatin linker-toxophore on sulphur atoms of cysteine residues of the partially reduced antibody, positions not stated (drug/mAb ratio 3.9 for the antibody)
B11: Example 29 (immunoconjugate of M048-D01-hIgG1-b, coupled to lysine side chains) (antibody)
heavy: B1 heavy with Q1E, E3Q
light: B1 light
modifications: here or on the partner: auristatin linker-toxophore on side chain NH of lysine residues, positions not stated (drug/mAb ratio 1.3 for the antibody)
B12: Example 4 (immunoconjugate of M048-D01-hIgG1, coupled to lysine side chains) (antibody)
heavy: B1 heavy
light: B1 light
modifications: here or on the partner: auristatin linker-toxophore on side chain NH of lysine residues, positions not stated (drug/mAb ratio 3.7 for the antibody)
B13: Example 7 (immunoconjugate of M048-D01-hIgG1-b, coupled to lysine side chains) (antibody)
heavy: B1 heavy with Q1E, E3Q
light: B1 light
modifications: here or on the partner: auristatin linker-toxophore on side chain NH of lysine residues, positions not stated (drug/mAb ratio 6.1 for the antibody)
B14: Example 8 (immunoconjugate of M048-D01-hIgG1-b, coupled to cysteine side chains) (antibody)
heavy: B1 heavy with Q1E, E3Q
light: B1 light
modifications: here or on the partner: auristatin linker-toxophore on sulphur atoms of cysteine residues of the partially reduced antibody, positions not stated (drug/mAb ratio 3.5 for the antibody)
B15: Example 27 (immunoconjugate of M048-D01-hIgG1-b, coupled to cysteine side chains) (antibody)
heavy: B1 heavy with Q1E, E3Q
light: B1 light
modifications: here or on the partner: auristatin linker-toxophore on sulphur atoms of cysteine residues of the partially reduced antibody, positions not stated (drug/mAb ratio 4.2 for the antibody)
B16: Example 9 (immunoconjugate of M048-D01-hIgG1-b, coupled to lysine side chains) (antibody)
heavy: B1 heavy with Q1E, E3Q
light: B1 light
modifications: here or on the partner: auristatin linker-toxophore on side chain NH of lysine residues, positions not stated (drug/mAb ratio 6.1 for the antibody)
B17: Example 26 (immunoconjugate of M048-D01-hIgG1-b, coupled to lysine side chains) (antibody)
heavy: B1 heavy with Q1E, E3Q
light: B1 light
modifications: here or on the partner: auristatin linker-toxophore on side chain NH of lysine residues, positions not stated (drug/mAb ratio 3.7 for the antibody)
B18: Example 12 (immunoconjugate of M048-D01-hIgG1-b, coupled to cysteine side chains) (antibody)
heavy: B1 heavy with Q1E, E3Q
light: B1 light
modifications: here or on the partner: auristatin linker-toxophore on sulphur atoms of cysteine residues of the partially reduced antibody, positions not stated (drug/mAb ratio 4.0 for the antibody)
B19: Example 6 (immunoconjugate of M048-D01-hIgG1, coupled to cysteine side chains) (antibody)
heavy: B1 heavy
light: B1 light
modifications: here or on the partner: auristatin linker-toxophore on sulphur atoms of cysteine residues of the partially reduced antibody, positions not stated (drug/mAb ratio 2.7 for the antibody)
B20: Example 11 (immunoconjugate of M048-D01-hIgG1-b, coupled to cysteine side chains) (antibody)
heavy: B1 heavy with Q1E, E3Q
light: B1 light
modifications: here or on the partner: auristatin linker-toxophore on sulphur atoms of cysteine residues of the partially reduced antibody, positions not stated (drug/mAb ratio 4.8 for the antibody)
B21: Example 2 (immunoconjugate of M048-D01-hIgG1, coupled to lysine side chains) (antibody)
heavy: B1 heavy
light: B1 light
modifications: here or on the partner: auristatin linker-toxophore on side chain NH of lysine residues, positions not stated (drug/mAb ratio 3.9 for the antibody)
B22: Example 3 (immunoconjugate of M048-D01-hIgG1, coupled to cysteine side chains) (antibody)
heavy: B1 heavy
light: B1 light
modifications: here or on the partner: auristatin linker-toxophore on sulphur atoms of cysteine residues of the partially reduced antibody, positions not stated (drug/mAb ratio 3.7 for the antibody)
B23: Example 13 (immunoconjugate of M048-D01-hIgG1-b, coupled to lysine side chains) (antibody)
heavy: B1 heavy with Q1E, E3Q
light: B1 light
modifications: here or on the partner: auristatin linker-toxophore on side chain NH of lysine residues, positions not stated (drug/mAb ratio 1.5 for the antibody)
B24: Example 28 (immunoconjugate of M048-D01-hIgG1-b, coupled to lysine side chains) (antibody)
heavy: B1 heavy with Q1E, E3Q
light: B1 light
modifications: here or on the partner: auristatin linker-toxophore on side chain NH of lysine residues, positions not stated (drug/mAb ratio 3.7 for the antibody)

Positions count from the first letter of the chain named.

This assay addresses FGFR2 on the cell surface of human tumour cell lines (human), P21802. Briefly: cell-based or functional assay.
B1: the MFM-223, IC50, 72 hr (growth inhibition) amounted to 90.7 pM and the SNU-16, IC50, 72 hr (growth inhibition) stood at 214 pM.
Turning to B2, the SNU-16, IC50, 72 hr (growth inhibition) came to 5880 pM.
As to B3, the SNU-16, IC50, 72 hr (growth inhibition) stood at 7410 pM and the SUM52-PE, IC50, 72 hr (growth inhibition) stood at 3370 pM.
Molecule B4 gave an MFM-223, IC50, 72 hr (growth inhibition) of 9160 pM; an SNU-16, IC50, 72 hr (growth inhibition) of 1840 pM; an SUM52-PE, IC50, 72 hr (growth inhibition) of 244 pM.
On to B5, for which the MFM-223, IC50, 72 hr (growth inhibition) is 4000 pM and the SNU-16, IC50, 72 hr (growth inhibition) came to 496 pM.
The corresponding values for B6 are 10300 pM and 519 pM.
The matching figures for B7: 1910 pM and 914 pM.
B8 yielded a KatoIII, IC50, 72 hr (growth inhibition) of 523 pM and an SUM52-PE, IC50, 72 hr (growth inhibition) of 105 pM.
On to B9, for which the KatoIII, IC50, 72 hr (growth inhibition) came out at 920 pM; the SNU-16, IC50, 72 hr (growth inhibition) stood at 8500 pM; the SUM52-PE, IC50, 72 hr (growth inhibition) was determined as 104 pM.
In turn, B10 came in with an MFM-223, IC50, 72 hr (growth inhibition) of 16900 pM and an SNU-16, IC50, 72 hr (growth inhibition) of 16600 pM.
The molecule B11 displayed an SNU-16, IC50, 72 hr (growth inhibition) of 1700 pM and an SUM52-PE, IC50, 72 hr (growth inhibition) of 106 pM.
The molecule B12 registered an MFM-223, IC50, 72 hr (growth inhibition) of 1470 pM and an SNU-16, IC50, 72 hr (growth inhibition) of 567 pM.
The matching figures for B13: 628 pM and 209 pM.
The matching figures for B14: 8670 pM and 2060 pM.
Molecule B15 returned a KatoIII, IC50, 72 hr (growth inhibition) of 198 pM; an MFM-223, IC50, 72 hr (growth inhibition) of 109 pM; an NCI-H716, IC50, 72 hr (growth inhibition) of 517 pM; an SNU-16, IC50, 72 hr (growth inhibition) of 159 pM. The same molecule returned an SUM52-PE, IC50, 72 hr (growth inhibition) of less than 53 pM.
With B16, the MFM-223, IC50, 72 hr (growth inhibition) is 4780 pM and the SNU-16, IC50, 72 hr (growth inhibition) stood at 2050 pM.
B17: the NCI-H716, IC50, 72 hr (growth inhibition) amounted to 4690 pM; the SNU-16, IC50, 72 hr (growth inhibition) was 455 pM; the SUM52-PE, IC50, 72 hr (growth inhibition) was less than 97 pM.
For the molecule B18, the MFM-223, IC50, 72 hr (growth inhibition) is 145 pM and the SNU-16, IC50, 72 hr (growth inhibition) amounted to 389 pM.
The corresponding values for B19 are 6850 pM and 497 pM.
The matching figures for B20: 581 pM and 614 pM.
On to B21, for which the MFM-223, IC50, 72 hr (growth inhibition) came to 860 pM and the SNU-16, IC50, 72 hr (growth inhibition) came to 1190 pM.
In turn, B22 showed an MFM-223, IC50, 72 hr (growth inhibition) of 195 pM and an SNU-16, IC50, 72 hr (growth inhibition) of 150 pM.
The corresponding values for B23 are 431 pM and 254 pM.
With B24, the SNU-16, IC50, 72 hr (growth inhibition) came to 277 pM and the SUM52-PE, IC50, 72 hr (growth inhibition) is 101 pM.

The values are drawn from patent US20150023989A1, “NEW ANTIBODY DRUG CONJUGATES (ADCS) AND THE USE THEREOF” (SEATTLE GENETICS, INC., priority 2011, published 2015).
